Measured values from US10696710B2, “Pharmaceutical targeting of a mammalian cyclic di-nucleotide signaling pathway” (Board of Regents, The University of Texas System, priority 2012, dated 2020).

Columns and labels:
THP1 cells [1] = assay: IFNβ induction by HT-DNA (specificity control for reverse transcriptase inhibitors); format: cell-based, human; settings: even at high concentrations
From the text: To test if reverse transcription is required for HIV to activate the innate immune response, we treated THP1 cells with the HIV reverse transcriptase inhibitors, azidothymidine (AZT) and nevirapine (NVP).

HIV [2] = format: cell-based, human; settings: THP1 cells
HIV [3] = format: cell-based, human
human STING = target: T1, human STING (Homo sapiens, UniProt Q86WV6, H232R); assay: Isothermal titration calorimetry of STING C-terminal domain (residues 139-379) binding to cyclic di-nucleotides
T1 construct: A C-terminal domain (CTD) encompassing residues 139-379 of human STING; made in house; host or cells: E. coli

IRF3 = IRF3 activation / dimerization by cyclic di-nucleotides; settings: for IRF3 dimerization: L929 versus L929-shSTING cells
STING = STING (Homo sapiens, UniProt Q86WV6); assay: UV-induced crosslinking of 32P-cGAMP to recombinant STING (residues 139-379) with cold competitors; settings: increasing or high concentrations of cold competitor
L929 cells = assay: IFNβ induction in L929 cells after delivery of cyclic di-nucleotides (q-RT-PCR, ELISA); format: cell-based, mouse
From the text: We also established two L929 cell lines stably expressing shRNA sequences targeting distinct regions of m-cGAS. The ability of these cells to induce IFNβ in response to HT-DNA was severely compromised as compared to another cell line expressing a control shRNA (GFP). Importantly, expression of cGAS in the L929-sh-cGAS cells restored IFNβ induction. […] . Quantitative RT-PCR analyses confirmed the specificity and efficiency of knocking down cGAS and STING in the L929 cell lines stably expressing the corresponding shRNAs.
. The reason for this is not clear, but it is possible that different compounds have different stability or distribution in the cells.

THP1 cells [4] = assay: IFNβ induction in cGAS shRNA knockdown THP1 cells after cGAMP delivery; settings: THP1 cells with cGAS shRNA
lung fibroblasts = assay: IFNβ induction in mouse lung fibroblasts after delivery of cGAMP into the cytoplasm; format: cell-based

STING, sequence (Q86WV6 139-379 H232R): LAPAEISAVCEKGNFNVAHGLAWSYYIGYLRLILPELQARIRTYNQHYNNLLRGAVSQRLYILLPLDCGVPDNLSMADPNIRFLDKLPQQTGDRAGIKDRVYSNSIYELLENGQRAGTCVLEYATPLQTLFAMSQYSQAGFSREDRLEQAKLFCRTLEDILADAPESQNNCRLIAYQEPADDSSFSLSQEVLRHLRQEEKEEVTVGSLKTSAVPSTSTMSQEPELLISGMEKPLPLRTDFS
T1 sequence (Q86WV6 139-379 H232R): as above

Cc1ccnc2c1NC(=O)c1cccnc1N2C1CC1 [NVP, nevirapine]
effect on IFNβ induction by HT-DNA (THP1 cells [1]): did not inhibit
effect on IFNβ induction by HIV (HIV [2]): blocked
effect on IRF3 activation by HIV (HIV [2]): blocked
effect on generation of the cGAMP activity (HIV [3]): blocked

Nc1nc2c(ncn2[C@@H]2O[C@@H]3COP(=O)(O)O[C@H]4[C@@H](O)[C@H](n5cnc6c(=O)[nH]c(N)nc65)O[C@@H]4COP(=O)(O)O[C@H]3[C@H]2O)c(=O)[nH]1 [c-di-GMP, cyclic-di-GMP]
heat change of binding to STING (human STING; ITC direct binding): exothermic
IRF3 dimerization (IRF3): dependent on STING
competition with formation of the crosslinked STING-32P-cGAMP complex (band intensity) (STING): decreased
EC50 (L929 cells; L929 cells, q-RT-PCR, read-out: EC50 of IFNβ induction): > 500 nM

Cc1nnc(C(=O)NC(C)(C)c2nc(C(=O)NCc3ccc(F)cc3)c(O)c(=O)n2C)o1 [RAL, raltegravir]
effect on IFNβ induction by HIV (HIV [2]): did not affect
effect on IRF3 activation by HIV (HIV [2]): did not affect
effect on generation of the cGAMP activity (HIV [3]): had no effect

Nc1ncnc2c1ncn2[C@@H]1O[C@H](COP(=O)(O)OP(=O)(O)OP(=O)(O)O)[C@@H](O)[C@H]1O [ATP]
competition with formation of the crosslinked STING-32P-cGAMP complex (band intensity) (STING): did not compete

cyclic-GMP-AMP [cGAMP]
potency in activating IRF3 (IRF3): more potent than c-di-GMP and c-di-AMP
IRF3 dimerization (IRF3): dependent on STING
IFNβ induction (THP1 cells [4]): rescued
IFNβ induction (lung fibroblasts; Sting gt/gt lung fibroblasts): not
IFNβ induction (lung fibroblasts; cGas−/− lung fibroblasts): rescued IFNβ induction
IFNβ induction (L929 cells; L929-sh-cGAS cells): induced IFNβ
IFNβ induction (L929 cells; L929-shSTING cells): failed to induce IFNβ
potency in inducing IFNβ (L929 cells; L929 cells, ELISA): much more potent than c-di-GMP
concentration at which IFNβ RNA is still robustly induced (L929 cells; L929 cells, titration, chemically synthesized cGAMP): ≤ 10 nM

O=c1[nH]cnc2c1ncn2[C@H]1CC[C@@H](CO)O1 [DDI, didanosine]
effect on generation of the cGAMP activity (HIV [3]): blocked

Nc1nc2c(ncn2[C@@H]2O[C@@H]3COP(=O)(O)O[C@H]4[C@@H](O)[C@H](n5cnc6c(N)ncnc65)O[C@@H]4COP(=O)(O)O[C@@H]2[C@@H]3O)c(=O)[nH]1 [2′3′-cGAMP]
EC50 (L929 cells; Mus musculus, L929, read-out: EC50 of IFNβ induction): ~20 nM

Nc1ncnc2c1ncn2[C@@H]1O[C@@H]2COP(=O)(O)O[C@H]3[C@@H](O)[C@H](n4cnc5c(N)ncnc54)O[C@@H]3COP(=O)(O)O[C@H]2[C@H]1O [c-di-AMP, cyclic-di-AMP]
competition with formation of the crosslinked STING-32P-cGAMP complex (band intensity) (STING): decreased

Nc1nc2c(ncn2[C@@H]2O[C@@H]3COP(=O)(O)O[C@@H]4[C@H](O)[C@@H](COP(=O)(O)O[C@@H]2[C@@H]3O)O[C@H]4n2cnc3c(N)ncnc32)c(=O)[nH]1 [2′2′-cGAMP]
Kd (human STING; ITC, titrated directly to STING CTD): 287 nM

Nc1nc2c(ncn2[C@@H]2O[C@H](COP(=O)(O)OP(=O)(O)OP(=O)(O)O)[C@@H](O)[C@H]2O)c(=O)[nH]1 [GTP]
competition with formation of the crosslinked STING-32P-cGAMP complex (band intensity) (STING): did not compete

Where two headings read alike, the source gives them in different places.
